This passage reports binding signal (log2 normalized intensity) results from article PMC10726135.

The other results are listed elsewhere or left out. At the low end of the ranking, values are background and their order means little. Measured with an extract: partners may take part in the binding.

The experiment deals with T1, HNF4alpha8 (COS-7 nuclear extract) (UniProt P41235-5).
T1 sequence: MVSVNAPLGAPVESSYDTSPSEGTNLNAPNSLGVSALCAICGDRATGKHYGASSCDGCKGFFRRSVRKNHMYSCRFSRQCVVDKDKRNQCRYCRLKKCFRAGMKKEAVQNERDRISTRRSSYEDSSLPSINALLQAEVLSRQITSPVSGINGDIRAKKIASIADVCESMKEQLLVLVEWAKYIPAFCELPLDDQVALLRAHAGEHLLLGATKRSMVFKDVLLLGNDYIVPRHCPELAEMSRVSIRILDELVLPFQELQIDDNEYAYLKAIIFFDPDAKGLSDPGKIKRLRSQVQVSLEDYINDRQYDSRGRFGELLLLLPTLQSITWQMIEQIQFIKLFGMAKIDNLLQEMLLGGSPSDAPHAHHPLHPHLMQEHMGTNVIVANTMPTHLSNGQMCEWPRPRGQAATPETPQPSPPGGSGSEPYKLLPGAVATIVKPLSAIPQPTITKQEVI
The experiment in a line: protein-binding microarray. As to conditions: COS-7 nuclear extract on double-stranded Agilent 4x180k PBM; binding buffer, salt, pH and temperature not given; high values mean tight binding; double strand, one strand shown; sequences stand for … in …GCCTAGGGAGATTAGAGTATCGGTCGA
As for CTCCTGGCTTCTGGACTATGCCTTGAACTT, the binding signal (log2 normalized intensity) was found to be 3.09.

For the sequence AAAATATCACAATCCTTAAGCAGCAGATAA, the binding signal (log2 normalized intensity) is -1.19.

For the sequence ACCTTCGAGCTTCACCTTTGTCCTCTCTCC, the binding signal (log2 normalized intensity) is 4.79.

AACTTACCCACCTGCTGCACAACGACCCTT: the binding signal (log2 normalized intensity) amounted to 3.51.

Turning to AAGCCCTTCTTCTGGAGCCTCAGTAAGTTT, the binding signal (log2 normalized intensity) was -1.04.

Consider CAGGAGACGTAGAGATAAGGTCTTCTACAG, for which the binding signal (log2 normalized intensity) was -1.41.

For CTCATTTATGGAGGAATTTGGACTTTTACT, the binding signal (log2 normalized intensity) came to 5.31.

With ACCTGCCCTGAGTCCAGCCTTCCTGTTCAA, the binding signal (log2 normalized intensity) was determined as 0.512.

In the case of TGGTCACTTGTAAGATACTGAAATGCCAAA, the binding signal (log2 normalized intensity) was -0.819.

As for CTGCCAAAGTTCAGCCTTGGGGCCATTCCA, the binding signal (log2 normalized intensity) was 1.13.

As for AGCAACTATAAAACAGGAAAAAGGGACAAA, the binding signal (log2 normalized intensity) is -1.22.

In the case of TAGCTGTTGGAATTTGGTCACAGAAAGTGA, the binding signal (log2 normalized intensity) is 2.3.

As to ATGACACAGAGTGGAAAATAAATATTTGTT, the binding signal (log2 normalized intensity) was -1.24.

As to GACTCTAGATTGTTTGTTCTTGCTACCTAC, the binding signal (log2 normalized intensity) is -0.907.

Regarding AAGGTCTCAAGGCCTTGGCTTGGAACTGAC, the binding signal (log2 normalized intensity) is -0.344.

Turning to CATTAAAACAACCCAGAGAATGCTAGACAA, the binding signal (log2 normalized intensity) is -1.34.

In the case of ACTAGACTGCCTCTTACAACGAGGTGCCAG, the binding signal (log2 normalized intensity) is -1.39.

Take TGGTGACCAGACTACCTCTTTAGGCTGGAC: the binding signal (log2 normalized intensity) is -0.0334.

For the sequence TATTCCAGGCACAAGAATGGTCATTCTCTG, the binding signal (log2 normalized intensity) turned out to be 0.0296.

Turning to AATACTCCAGTCATTGTACAAACACATACC, the binding signal (log2 normalized intensity) is -0.533.

In the case of AGGAAAACGGAGACAGAAACTGTTTCCAAT, the binding signal (log2 normalized intensity) was -1.21.

In the case of AGGCCAGCTCATAGGGATCAGATAAGAAGT, the binding signal (log2 normalized intensity) is -0.663.

In the case of GACCAAAAGATATTTGCTGCTGACATCTCA, the binding signal (log2 normalized intensity) is -1.33.

In the case of TCGTAGGCAGGGCCAGATAAAGCAGGTTGT, the binding signal (log2 normalized intensity) is -0.948.

As to TTGGACTTTGTACATTCCAAATACGATAAT, the binding signal (log2 normalized intensity) is 5.9.

With TTTGCTTTCTTGGAGGTTAACATTTGACAA, the binding signal (log2 normalized intensity) was found to be 1.64.

With TCCTGGTTGGCAAACAAAAAGCTCTGCCTA, the binding signal (log2 normalized intensity) came to 0.00252.

For the sequence GGCAAAACTGTCACAAGAAAGGCAGAAAAC, the binding signal (log2 normalized intensity) is -1.41.

Take GCAGAAGGCAACAGCTCTGGAGGATTTGGG: the binding signal (log2 normalized intensity) is -1.32.

Consider AAAGATGGGGATATAATCATTCATGGGCCA, for which the binding signal (log2 normalized intensity) is -0.524.

Consider AACGGAGACAGAAACTGTTTCCAATAGGTT, for which the binding signal (log2 normalized intensity) was -1.24.

With TAAGCCTCTGACTGTTGCATCAAACAGCTT, the binding signal (log2 normalized intensity) was -1.42.

Regarding GCTCAATCAAGGACTGGGCTGGAACACAAA, the binding signal (log2 normalized intensity) was -1.32.

In the case of AGTCTGCTCAAGTCTTTTAGAATGTGGATG, the binding signal (log2 normalized intensity) is 1.71.

For the sequence CTGTATTTAACTTTTGGGATCAGCAATGCT, the binding signal (log2 normalized intensity) was -0.249.

For the sequence CTTTATCAACTAAGACAGACCCAAAGGTTA, the binding signal (log2 normalized intensity) came out at 1.69.

GCTGGGCCACACTGGTTCCTGCACCCGGGC: the binding signal (log2 normalized intensity) was -1.33.

In the case of CCACTGGAGACTTCAAACGGGAAGCGAGGC, the binding signal (log2 normalized intensity) was -1.2.

As for CAAACAATGAGGACGTGTGTGTTCTGGACT, the binding signal (log2 normalized intensity) stood at 3.02.

Take CAGGCCTCAGAGATAATAGGTTGTAAAGTG: the binding signal (log2 normalized intensity) worked out at 1.27.

For the sequence TATCCTGTGTTCCACAGTCAAGGCCAAAGG, the binding signal (log2 normalized intensity) was determined as 3.54.

Turning to GCCTCTCTGTGCTGGAACTTGCTTCCTTAT, the binding signal (log2 normalized intensity) was found to be 1.37.

Consider GAAAAGCAAGATTGGGAGCTGGGAGGAGCC, for which the binding signal (log2 normalized intensity) was -1.36.

Regarding GAGCAGAGAAAATTCTAGATAACTCCAAGA, the binding signal (log2 normalized intensity) was -0.996.

Consider GGGGACGGAGAGCAGGGCGTGGACTTCGCT, for which the binding signal (log2 normalized intensity) came out at 1.84.

For the sequence GCATTGCTTCTGAAGGCTTAAGGGGAGGAT, the binding signal (log2 normalized intensity) was -1.11.

As for AGTCCTCTTGTGGTAATCTCTTTTGTGTTA, the binding signal (log2 normalized intensity) was 2.48.

On to CAGATGAAAGTAGTTGGGGATTGTGTAACA, for which the binding signal (log2 normalized intensity) came to 0.949.

In the case of CTTGAGTCCAGGAGTGCAAAGCTGCTATGA, the binding signal (log2 normalized intensity) was -0.723.

Turning to CCTGTTACCCACCTGATATTGCTGGCTCTC, the binding signal (log2 normalized intensity) was -0.511.

As for TTGGATTTTTCCATATCTGTGTGCCTGTGG, the binding signal (log2 normalized intensity) is 1.53.

For the sequence CCCCAATTGCCAAGGGGGTGGTGAAATGGG, the binding signal (log2 normalized intensity) is -1.31.

Consider GACCCCTGTGGTACAGGCAGTGACTGGACC, for which the binding signal (log2 normalized intensity) was 3.02.

For AGTGGTCATTACCTCCCTGGGCATGTCTGC, the binding signal (log2 normalized intensity) turned out to be 1.5.

With CCTCCTGCCCTATGTCCTCCAGCTCTTGGG, the binding signal (log2 normalized intensity) came out at 1.12.

Consider TAATGCTGAACTTTAGCTCACTGTTGAACA, for which the binding signal (log2 normalized intensity) worked out at 1.07.

On to TTGAACTCACTGACTTCCATCAATGAAGCA, for which the binding signal (log2 normalized intensity) was 0.0016.

Regarding CCAGTCCGAAGGTCCACCCGTCCGCTTGAT, the binding signal (log2 normalized intensity) stood at 2.26.

GGGAGGCAAATCTCTTGGTCATGGAGGGAA: the binding signal (log2 normalized intensity) is -0.984.

On to GAGATCCTGGGTTCGAATCCCAGCGGTGCC, for which the binding signal (log2 normalized intensity) is -1.22.

With TGAAAAGTGAACTGTCTGCTATGTGTATAT, the binding signal (log2 normalized intensity) was 1.43.

On to GCACCCGTGGTTGATCAAAGGTTGGACTGA, for which the binding signal (log2 normalized intensity) turned out to be 4.14.

As for TGGGAGCAAAGGTCAAGAGTTTTAAAGTAT, the binding signal (log2 normalized intensity) turned out to be 5.47.

On to GAGAGCAGGTGATAAGGAACTGTTATCAAG, for which the binding signal (log2 normalized intensity) is -0.911.

As for CCCAGATGCCCAGCAGAGGGAGCCGCTGTG, the binding signal (log2 normalized intensity) is -1.21.

As for ATATTCTTTACATTTATTAGAACCTTATGT, the binding signal (log2 normalized intensity) was determined as 1.93.

Turning to GAACAGAGGGGTCTGAGCACATCACACAGG, the binding signal (log2 normalized intensity) was -1.23.

For CTGCTGGGTCAGTTTATCTAAGATTCCCCC, the binding signal (log2 normalized intensity) turned out to be 3.43.

On to GTGAGGTCAGTTGATAAACAGATAACTGGG, for which the binding signal (log2 normalized intensity) was -0.201.

In the case of GTTGGACTTTGGACCTTTGTGTGTGTGTGT, the binding signal (log2 normalized intensity) is 8.31.

TCCCTGAAGGCCAGGCAGCACAATTTGTGT: the binding signal (log2 normalized intensity) was -0.959.

GAAACAGGGGATGTTGATTCCCCTGTTGTC: the binding signal (log2 normalized intensity) was determined as 0.397.

On to GGCAGAATCTAGGATAACTCTAGTGATCTT, for which the binding signal (log2 normalized intensity) was found to be 0.846.

Take ACGACCTTTGGACTTGAATTATCCTTATGG: the binding signal (log2 normalized intensity) amounted to 6.99.

As for GACATTCCAGAAATACTTGTTATATTGGAT, the binding signal (log2 normalized intensity) amounted to 1.43.

For ACAGTTCCAGGAATGGAAACCCCTGTAAGT, the binding signal (log2 normalized intensity) was 1.48.

As for CCAAAGTCTAGATGCTGGGCAGCTTGTGTG, the binding signal (log2 normalized intensity) stood at 0.363.

Consider CCCTTTGGGAAGGGGCAAAAGAGAGCGAAG, for which the binding signal (log2 normalized intensity) is -1.23.

In the case of ACGCCCCACCCCCTCCACCCCTGCCTTTCA, the binding signal (log2 normalized intensity) amounted to 6.34.

Take ATAACTGGTTCAACCTGTTTCCACTCCAGC: the binding signal (log2 normalized intensity) is -1.17.

Take TGAAGAGAGTTAGGGCCTTGCTATGGAGTG: the binding signal (log2 normalized intensity) was -0.205.

For TGCATGGATTTCTCAGTTGAGGAATGGGTA, the binding signal (log2 normalized intensity) is 0.827.

With TGGGGACCTTTGGGCTCTGACCCGAAGGGT, the binding signal (log2 normalized intensity) came to 2.6.

Turning to CAGAGGAAGCAATCAAGCAATCATATATGC, the binding signal (log2 normalized intensity) is -1.4.

As to GGCGCTGAACTTTGCCTTGTACACAAAGAC, the binding signal (log2 normalized intensity) is 2.98.

Consider GTCTGATCTTCCTGAGGAGAGCAAAGATCA, for which the binding signal (log2 normalized intensity) amounted to 3.28.

Regarding CCCACAGAGGGGGTTTGTTTTTTGCCCTTT, the binding signal (log2 normalized intensity) was found to be 5.27.

On to AGTTCTGTCCTTTGTCCCCCACCTGTGAAG, for which the binding signal (log2 normalized intensity) was 4.64.

With CTTAATCCTTGTCTGTTTGGCCTTAGGTCC, the binding signal (log2 normalized intensity) is 3.01.

Take CTCCTGGGACAAGGACTTTGGCTAGTGGCT: the binding signal (log2 normalized intensity) is 0.998.

With ATGTGCCCTTTGGACAGAAATATCAGCAAG, the binding signal (log2 normalized intensity) is 3.43.

Take CCCTGTCTGATAAGGGTGTTTGTCCTTTGT: the binding signal (log2 normalized intensity) came to 3.5.

Consider CGCCCAGGCTGGAATGCAGTGGCGCAATCT, for which the binding signal (log2 normalized intensity) is -1.23.
